Paper PMC10897488
Results are given in words; binding and its absence hold for the method and conditions named. Binding seen in cells or lysates may run through a third protein. Some results given as binding are weak or reduced against the parent protein; the word gives no strength. For part of these data: Sequences can lack the tags named with a protein. Each block holds one molecule with its values, some of them ahead of it.

The chains behind the UniProt entries cited, without tags or fusion partners. Where a name states a change or a piece, a line headed by the entry shows the natural chain unless it says otherwise. A line that says so, or that is headed by a name, gives the form on record, which may keep a tag or linker. Residues count along the entry.
UniProt Q7Z5L9: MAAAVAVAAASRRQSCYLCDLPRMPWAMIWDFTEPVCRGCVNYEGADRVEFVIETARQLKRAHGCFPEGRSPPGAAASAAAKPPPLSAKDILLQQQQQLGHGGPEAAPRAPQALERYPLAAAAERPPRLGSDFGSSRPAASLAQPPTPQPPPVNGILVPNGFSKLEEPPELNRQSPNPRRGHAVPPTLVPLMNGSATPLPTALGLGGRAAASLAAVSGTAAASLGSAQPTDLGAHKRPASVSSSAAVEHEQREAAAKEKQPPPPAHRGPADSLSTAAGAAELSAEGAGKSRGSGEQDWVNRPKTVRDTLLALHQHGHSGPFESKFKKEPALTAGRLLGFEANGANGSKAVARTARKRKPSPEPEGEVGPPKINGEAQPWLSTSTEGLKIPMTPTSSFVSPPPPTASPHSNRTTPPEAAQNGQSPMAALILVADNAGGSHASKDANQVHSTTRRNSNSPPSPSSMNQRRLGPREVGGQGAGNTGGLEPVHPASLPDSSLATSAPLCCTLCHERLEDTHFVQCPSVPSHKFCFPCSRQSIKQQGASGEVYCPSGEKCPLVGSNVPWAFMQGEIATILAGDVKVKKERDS
Myc-IRF2BP2-Mu (Q7Z5L9, form named): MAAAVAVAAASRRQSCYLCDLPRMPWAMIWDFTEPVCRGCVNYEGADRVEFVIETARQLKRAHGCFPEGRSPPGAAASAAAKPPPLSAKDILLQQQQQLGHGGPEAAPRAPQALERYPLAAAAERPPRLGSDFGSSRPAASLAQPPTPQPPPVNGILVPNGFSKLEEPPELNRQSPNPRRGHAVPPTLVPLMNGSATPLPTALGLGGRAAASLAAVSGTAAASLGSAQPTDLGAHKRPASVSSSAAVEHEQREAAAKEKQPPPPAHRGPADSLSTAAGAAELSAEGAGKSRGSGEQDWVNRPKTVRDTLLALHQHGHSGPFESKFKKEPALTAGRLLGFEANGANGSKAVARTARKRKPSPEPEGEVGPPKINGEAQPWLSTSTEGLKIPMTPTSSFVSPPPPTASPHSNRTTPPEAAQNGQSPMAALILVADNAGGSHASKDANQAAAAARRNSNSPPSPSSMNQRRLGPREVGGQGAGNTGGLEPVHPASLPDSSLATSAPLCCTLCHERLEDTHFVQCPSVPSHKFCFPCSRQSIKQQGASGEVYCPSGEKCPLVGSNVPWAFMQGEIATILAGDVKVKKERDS
UniProt O43791: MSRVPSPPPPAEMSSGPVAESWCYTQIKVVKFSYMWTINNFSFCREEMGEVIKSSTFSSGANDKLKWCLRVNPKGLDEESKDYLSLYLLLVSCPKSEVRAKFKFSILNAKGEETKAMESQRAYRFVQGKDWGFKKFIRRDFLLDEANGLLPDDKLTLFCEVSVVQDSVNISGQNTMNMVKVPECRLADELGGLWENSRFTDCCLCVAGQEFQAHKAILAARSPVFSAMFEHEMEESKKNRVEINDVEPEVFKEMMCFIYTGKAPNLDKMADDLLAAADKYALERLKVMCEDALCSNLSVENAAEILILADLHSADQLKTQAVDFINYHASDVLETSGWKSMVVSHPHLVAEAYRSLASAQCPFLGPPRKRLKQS
Fg-SPOP-MATH (human (cDNA of HCC cells)): residues 31-161 of O43791
UniProt P10070: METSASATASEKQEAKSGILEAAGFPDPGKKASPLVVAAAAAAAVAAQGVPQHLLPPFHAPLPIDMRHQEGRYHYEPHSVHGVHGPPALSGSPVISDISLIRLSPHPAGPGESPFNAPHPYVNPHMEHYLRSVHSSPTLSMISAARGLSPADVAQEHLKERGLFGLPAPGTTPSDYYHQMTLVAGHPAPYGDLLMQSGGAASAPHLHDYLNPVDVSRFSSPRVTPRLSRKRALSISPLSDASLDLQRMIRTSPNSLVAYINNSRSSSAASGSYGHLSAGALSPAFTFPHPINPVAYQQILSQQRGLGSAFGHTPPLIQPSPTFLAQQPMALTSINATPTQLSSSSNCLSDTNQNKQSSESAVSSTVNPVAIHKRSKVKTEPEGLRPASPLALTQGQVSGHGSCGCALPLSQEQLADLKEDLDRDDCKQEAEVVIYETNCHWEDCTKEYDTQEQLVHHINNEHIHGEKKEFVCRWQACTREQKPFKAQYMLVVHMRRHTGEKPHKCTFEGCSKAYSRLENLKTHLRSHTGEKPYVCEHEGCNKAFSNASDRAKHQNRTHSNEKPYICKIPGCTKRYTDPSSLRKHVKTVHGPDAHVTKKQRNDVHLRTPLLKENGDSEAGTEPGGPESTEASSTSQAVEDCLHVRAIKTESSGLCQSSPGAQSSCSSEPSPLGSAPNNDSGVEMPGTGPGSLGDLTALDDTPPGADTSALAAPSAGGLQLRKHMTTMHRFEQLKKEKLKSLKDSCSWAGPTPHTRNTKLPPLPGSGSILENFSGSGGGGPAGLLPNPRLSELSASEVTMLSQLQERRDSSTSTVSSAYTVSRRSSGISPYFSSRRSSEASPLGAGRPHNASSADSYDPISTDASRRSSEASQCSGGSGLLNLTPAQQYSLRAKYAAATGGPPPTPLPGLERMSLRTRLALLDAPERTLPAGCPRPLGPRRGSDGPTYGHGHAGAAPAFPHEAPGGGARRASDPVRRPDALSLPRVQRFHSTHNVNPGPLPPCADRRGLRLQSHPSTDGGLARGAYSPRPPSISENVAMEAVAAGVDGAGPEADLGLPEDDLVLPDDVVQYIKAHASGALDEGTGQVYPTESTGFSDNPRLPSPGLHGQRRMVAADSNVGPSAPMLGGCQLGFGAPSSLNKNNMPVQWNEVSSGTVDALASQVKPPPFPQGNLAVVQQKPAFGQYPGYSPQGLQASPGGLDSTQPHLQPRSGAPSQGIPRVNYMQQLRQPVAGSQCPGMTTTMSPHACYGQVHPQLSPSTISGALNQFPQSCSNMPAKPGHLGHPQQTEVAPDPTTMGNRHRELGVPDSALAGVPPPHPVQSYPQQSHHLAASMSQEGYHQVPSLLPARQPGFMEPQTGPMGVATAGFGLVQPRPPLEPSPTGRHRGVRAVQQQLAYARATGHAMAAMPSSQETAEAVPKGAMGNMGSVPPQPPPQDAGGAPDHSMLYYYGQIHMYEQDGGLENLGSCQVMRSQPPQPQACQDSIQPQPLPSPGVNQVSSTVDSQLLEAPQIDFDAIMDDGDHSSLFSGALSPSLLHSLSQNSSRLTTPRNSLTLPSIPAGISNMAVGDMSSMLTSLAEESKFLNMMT
UniProt P01106: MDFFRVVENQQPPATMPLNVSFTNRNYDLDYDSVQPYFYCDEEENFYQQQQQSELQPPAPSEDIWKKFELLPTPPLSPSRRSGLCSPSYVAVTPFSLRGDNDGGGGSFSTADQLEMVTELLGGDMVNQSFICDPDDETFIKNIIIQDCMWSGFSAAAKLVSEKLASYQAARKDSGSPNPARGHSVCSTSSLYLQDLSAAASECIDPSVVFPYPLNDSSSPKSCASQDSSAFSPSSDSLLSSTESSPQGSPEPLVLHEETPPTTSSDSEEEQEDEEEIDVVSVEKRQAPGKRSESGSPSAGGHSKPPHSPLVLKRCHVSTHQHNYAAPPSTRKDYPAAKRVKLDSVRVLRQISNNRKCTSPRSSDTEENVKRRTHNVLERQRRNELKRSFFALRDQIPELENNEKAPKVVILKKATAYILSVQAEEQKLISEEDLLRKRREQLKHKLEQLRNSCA

What was measured:
[1] = biological target: Myc-IRF2BP2 (human (cDNA of HCC cells)) (UniProt Q7Z5L9); experiment: co-IP; co-transfected cells (HEK-293T where told), treated with 25 μM MG132 for 8 h, harvested 48 h after transfection; IP by anti-Fg, anti-Myc or anti-HA, immunoblot
[2] = biological target: Fg-SPOP (human (cDNA of HCC cells)) (UniProt O43791); experiment: co-IP; co-IP of SPOP or SPOP-M35L with one substrate, with or without a second substrate co-expressed (Fig. 7H-K, Fig. S6A-D)
[3] = biological target: Fg-SPOP-M35L (human (cDNA of HCC cells)) (UniProt O43791); experiment: as above
[4] = biological target: Fg-SPOP (human (cDNA of HCC cells)) (UniProt O43791); experiment: co-IP; co-transfected cells (HEK-293T where told), treated with 25 μM MG132 for 8 h, harvested 48 h after transfection; IP by anti-Fg, anti-Myc or anti-HA, immunoblot
[5] = biological target: Fg-SPOP-M35L (human (cDNA of HCC cells)) (UniProt O43791); experiment: as above
[6] = biological target: Fg-SPOP-MATH (human (cDNA of HCC cells)) (UniProt O43791); experiment: as above
[7] = biological target: T1, Fg-VGLL4 (human (cDNA of HCC cells)) (UniProt Q14135); experiment: as above
T1 sequence: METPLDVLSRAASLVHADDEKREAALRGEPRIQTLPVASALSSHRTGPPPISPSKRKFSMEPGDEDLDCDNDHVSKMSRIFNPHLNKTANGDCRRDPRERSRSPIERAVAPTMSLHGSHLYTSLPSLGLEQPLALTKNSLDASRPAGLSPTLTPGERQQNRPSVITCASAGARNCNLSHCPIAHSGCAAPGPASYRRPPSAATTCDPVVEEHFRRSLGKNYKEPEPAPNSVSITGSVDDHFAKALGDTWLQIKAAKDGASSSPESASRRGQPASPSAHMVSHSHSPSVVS

[8] = biological target: SPOP-E47K (human (cDNA of HCC cells)) (UniProt O43791); experiment: as above
[9] = biological target: SPOP-F125I (human (cDNA of HCC cells)) (UniProt O43791); experiment: as above
[10] = biological target: SPOP-F133V (human (cDNA of HCC cells)) (UniProt O43791); experiment: as above
[11] = biological target: SPOP-F136L (human (cDNA of HCC cells)) (UniProt O43791); experiment: as above
[12] = biological target: SPOP-K129E (human (cDNA of HCC cells)) (UniProt O43791); experiment: as above
[13] = biological target: SPOP-M117I (human (cDNA of HCC cells)) (UniProt O43791); experiment: as above
[14] = biological target: SPOP-R121Q (human (cDNA of HCC cells)) (UniProt O43791); experiment: as above
[15] = biological target: SPOP-S119N (human (cDNA of HCC cells)) (UniProt O43791); experiment: as above
[16] = biological target: SPOP-Y87N (human (cDNA of HCC cells)) (UniProt O43791); experiment: as above
[17] = biological target: endogenous IRF2BP2 (human (endogenous in SMMC-7721 and SK-Hep1)) (UniProt Q7Z5L9); experiment: co-IP; endogenous proteins of SMMC-7721 and SK-Hep1 cells; IP of IRF2BP2, immunoblot
[18] = biological target: Fg-SPOP (human (cDNA of HCC cells)) (UniProt O43791); experiment: co-IP; co-transfected cells (HEK-293T where told), treated with 25 μM MG132 for 8 h, harvested 48 h after transfection; IP by anti-Fg, anti-Myc or anti-HA, immunoblot; remark: listed apart in the source
[19] = biological target: Fg-SPOP-M35L (human (cDNA of HCC cells)) (UniProt O43791); experiment: as above; remark: listed apart in the source

Molecule: IRF2BP2-K289R (from UniProt Q7Z5L9 1-587)
- binding [4]: binds

Molecule: Myc-GLI2 (from UniProt P10070 1-1586)
- binding [2]: binds
- binding [3]: binds
- binding [4]: binds
- binding [5]: binds

Molecule: Myc-IRF2BP2-Mu (from UniProt Q7Z5L9 1-587)
- binding [7]: binds

Molecule: endogenous SPOP (from UniProt O43791 1-374)
- binding [17]: binds

B2: endogenous VGLL4 (protein, UniProt Q14135 1-290)
chain: METPLDVLSRAASLVHADDEKREAALRGEPRIQTLPVASALSSHRTGPPPISPSKRKFSMEPGDEDLDCDNDHVSKMSRIFNPHLNKTANGDCRRDPRERSRSPIERAVAPTMSLHGSHLYTSLPSLGLEQPLALTKNSLDASRPAGLSPTLTPGERQQNRPSVITCASAGARNCNLSHCPIAHSGCAAPGPASYRRPPSAATTCDPVVEEHFRRSLGKNYKEPEPAPNSVSITGSVDDHFAKALGDTWLQIKAAKDGASSSPESASRRGQPASPSAHMVSHSHSPSVVS
- binding [17]: binds

Results, then the molecule that gave them:

- binding [1]: binds
Molecule: Fg-SPOP (from UniProt O43791 1-374)

- binding [2]: binds
- binding [3]: binds
- binding [4]: binds
- binding [5]: binds
Molecule: HA-c-MYC (from UniProt P01106 1-454)

- binding [4]: binds
Molecule: IRF2BP2-K236R (from UniProt Q7Z5L9 1-587)

- binding [2]: binds
- binding [3]: binds
- binding [4]: binds
- binding [5]: binds
- binding [6]: binds
- binding [7]: binds
- binding [8]: binds
- binding [9]: no binding
- binding [10]: no binding
- binding [11]: binds
- binding [12]: no binding
- binding [13]: binds
- binding [14]: binds
- binding [15]: no binding
- binding [16]: no binding
Molecule: Myc-IRF2BP2 (from UniProt Q7Z5L9 1-587)

- binding [2]: binds
- binding [3]: binds
- binding [18]: binds
- binding [19]: binds
B1: HA-TRIM24 (protein, UniProt O15164 1-1050)
chain: MEVAVEKAVAAAAAASAAASGGPSAAPSGENEAESRQGPDSERGGEAARLNLLDTCAVCHQNIQSRAPKLLPCLHSFCQRCLPAPQRYLMLPAPMLGSAETPPPVPAPGSPVSGSSPFATQVGVIRCPVCSQECAERHIIDNFFVKDTTEVPSSTVEKSNQVCTSCEDNAEANGFCVECVEWLCKTCIRAHQRVKFTKDHTVRQKEEVSPEAVGVTSQRPVFCPFHKKEQLKLYCETCDKLTCRDCQLLEHKEHRYQFIEEAFQNQKVIIDTLITKLMEKTKYIKFTGNQIQNRIIEVNQNQKQVEQDIKVAIFTLMVEINKKGKALLHQLESLAKDHRMKLMQQQQEVAGLSKQLEHVMHFSKWAVSSGSSTALLYSKRLITYRLRHLLRARCDASPVTNNTIQFHCDPSFWAQNIINLGSLVIEDKESQPQMPKQNPVVEQNSQPPSGLSSNQLSKFPTQISLAQLRLQHMQQQVMAQRQQVQRRPAPVGLPNPRMQGPIQQPSISHQQPPPRLINFQNHSPKPNGPVLPPHPQQLRYPPNQNIPRQAIKPNPLQMAFLAQQAIKQWQISSGQGTPSTTNSTSSTPSSPTITSAAGYDGKAFGSPMIDLSSPVGGSYNLPSLPDIDCSSTIMLDNIVRKDTNIDHGQPRPPSNRTVQSPNSSVPSPGLAGPVTMTSVHPPIRSPSASSVGSRGSSGSSSKPAGADSTHKVPVVMLEPIRIKQENSGPPENYDFPVVIVKQESDEESRPQNANYPRSILTSLLLNSSQSSTSEETVLRSDAPDSTGDQPGLHQDNSSNGKSEWLDPSQKSPLHVGETRKEDDPNEDWCAVCQNGGELLCCEKCPKVFHLSCHVPTLTNFPSGEWICTFCRDLSKPEVEYDCDAPSHNSEKKKTEGLVKLTPIDKRKCERLLLFLYCHEMSLAFQDPVPLTVPDYYKIIKNPMDLSTIKKRLQEDYSMYSKPEDFVADFRLIFQNCAEFNEPDSEVANAGIKLENYFEELLKNLYPEKRFPKPEFRNESEDNKFSDDSDDDFVQPRKKRLKSIEERQLLK
